Laboratory results from PubChem BioAssay AID1030 (National Center for Advancing Translational Sciences (NCATS), 2008).
Screen size: about 220,000 compounds; about 16,000 (7.3%) were called active. Inconclusive results, whose numbers are uncertain, are shown with a selection of clear calls. Calls come from the whole dose curve; as a rule, active = well fitted inhibition curve with a large enough effect (not every such curve was filed as active); inconclusive = small, poorly fitted or top-dose-only effect, or another doubt; inactive = no such curve, though single readings can be large or run the other way. No potency is given beside an inconclusive call; the fits are too rough.

The compounds below were run against Aldehyde dehydrogenase 1A1 (Homo sapiens) (UniProt P00352) (assay: qHTS Assay for Inhibitors of Aldehyde Dehydrogenase 1 (ALDH1A1)). Details: Purified ALDH1A1, NADH fluorescence, propionaldehyde substrate; series mostly up to 75.3 µM.
Chain of UniProt P00352 (P00352 whole entry, looked up): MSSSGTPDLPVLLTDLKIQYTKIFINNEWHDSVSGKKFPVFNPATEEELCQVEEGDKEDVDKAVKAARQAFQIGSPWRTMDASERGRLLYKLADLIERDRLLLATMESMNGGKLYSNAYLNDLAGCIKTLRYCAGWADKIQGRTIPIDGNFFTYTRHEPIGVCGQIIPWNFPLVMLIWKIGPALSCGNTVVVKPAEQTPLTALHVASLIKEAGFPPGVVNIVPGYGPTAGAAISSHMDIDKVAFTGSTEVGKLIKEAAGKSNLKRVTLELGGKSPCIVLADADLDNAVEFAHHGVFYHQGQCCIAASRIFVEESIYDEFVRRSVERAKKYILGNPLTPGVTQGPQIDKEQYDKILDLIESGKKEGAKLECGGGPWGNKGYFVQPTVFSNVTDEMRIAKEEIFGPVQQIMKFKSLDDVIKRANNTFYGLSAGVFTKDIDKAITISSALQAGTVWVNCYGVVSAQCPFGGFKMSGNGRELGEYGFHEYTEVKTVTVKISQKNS
Potency is the fitted concentration of half-maximal effect; tags give direction and shape of the fitted curve.

Compound	Potency
Cc1ccc(S(=O)(=O)NCCCCCC(=O)Nc2ccccn2)cc1	active: 22.4 µM
CCn1cc(C(=O)NCc2ccccn2)c(=O)c2cc(F)c(N3CCN(C)CC3)cc21	inconclusive [inhibitor, single point]
Cc1ccccc1C1CCCN(Cc2nc(CC3CC3)no2)C1 (stereo not drawn)	inactive
CC(C)CNC(=O)c1nc(-c2ccccc2)n(-c2ccccc2)n1	active: 12.6 µM
[2H]c1c([2H])c([2H])c(C(=O)c2sc(N3CCCCCC3)nc2-c2ccccc2)c([2H])c1[2H]	inconclusive [inhibitor, single point]
O=C(Nc1ccc2ccccc2c1)c1onc2c1CCCC2	inactive
N#Cc1cn(CCOc2ccccc2F)c2ccccc12	inconclusive [inhibitor, single point]
Cc1ccccc1C(=O)NN(C)c1nc2ccccc2nc1C(F)(F)F	inactive
COc1ccc(CNC(=O)c2cccnc2Sc2ccc(Cl)cc2)cc1	inconclusive [inhibitor, full curve]
CCOC(=O)C1=C(CSc2nc(C)ccc2C#N)OC(N)=C(C#N)C1c1cccc(OC)c1OC (stereo not drawn)	active: 28.2 µM
Cc1cccnc1CN1CCN(C(=O)c2cc(COc3ccc4ncccc4c3)on2)CC1	inactive
O=C(CSC1=Nc2ccccc2C2=NC(CC(=O)NCc3ccco3)C(=O)N12)NCc1ccco1 (stereo not drawn)	active: 7.94 µM
COc1ccc(-c2cc(-c3ccccc3)nc(SCC(=O)Nc3ncc(C)s3)c2C#N)cc1	inconclusive [inhibitor, partial curve]
COc1ccc(Br)cc1/C=N/NC(=O)CN1CCN(Cc2ccccc2)CC1	inconclusive [inhibitor, partial curve]
Cc1cc(Cl)c(S(=O)(=O)NC(C(=O)O)C(C)C)cc1OCC(=O)NC1CCCCC1 (stereo not drawn)	inconclusive [inhibitor, single point]
CC1=Nc2ccccc2N=C(NC(=O)c2ccccc2)C1c1ccccc1 (stereo not drawn)	inconclusive [inhibitor, partial curve]
Cc1ccc(Cl)cc1N1CCN(C(=O)CSc2nnc3n2C(C)(C)Cc2ccccc2-3)CC1	inconclusive [inhibitor, single point]
CCOC(=O)c1cnc2sc3c(n2c1=O)CCCC3	inconclusive [inhibitor, partial curve]
Cc1cccnc1NC(=O)/C=C/c1ccc2c(c1)OCO2	inconclusive [inhibitor, single point]
CSc1nsc(NC(=O)Cc2ccccc2)n1	inconclusive [inhibitor, single point]
CCCc1nnc(N2C(=O)c3cccc4cccc(c34)C2=O)s1	inconclusive [inhibitor, partial curve]
Cc1nn(-c2nc3ccccc3n2Cc2ccccc2)c2c1C(=O)CC(C)(C)C2	inconclusive [inhibitor, single point]
Cc1nc(NC(=O)c2ccc(Br)o2)sc1C	inconclusive [inhibitor, partial curve, poor fit]

Compound	Potency
Cc1ccc(NC(=O)CN2C(=O)S/C(=C\c3ccc(-c4cccc(C(=O)O)c4C)o3)C2=O)cc1C	inactive
COc1ccc(S(=O)(=O)N2CCCC2)c(C)c1C	inconclusive [inhibitor, single point]
O=C(COc1cccc2ccccc12)NNC(=O)c1cnccn1	inactive
CCOC(=O)C1(Cc2ccccc2Cl)CCN(S(C)(=O)=O)CC1	active: 10 µM
CCCN1Cc2cccc(C(=O)NCc3ccc4c(c3)OCO4)c2C1=O	active: 14.1 µM
COc1cc2[nH]c(=O)n(Cc3ccc(C(=O)NC4CCN(Cc5ccccc5)CC4)cc3)c(=O)c2cc1OC	inconclusive [inhibitor, single point]
O=C(CN(Cc1ccccc1)C1=NCCS1)c1ccc(Cl)cc1	inconclusive [inhibitor, single point]
COc1cccc(C(=O)/C=C/Nc2ccc(NC(C)=O)cc2)c1	inconclusive [inhibitor, single point]
O=C(O)C1=C[C@@H](c2ccc3c(c2)OCO3)C[C@@H](OCCCCO)O1	inconclusive [inhibitor, partial curve]
C=CCc1cc(/C=C/c2nc(O)c([N+](=O)[O-])c(=O)[nH]2)cc(OC)c1O	inconclusive [inhibitor, single point]
Nc1nonc1-c1noc(CCCN2C(=O)c3ccccc3C2=O)n1	inactive
CCc1nnc(NS(=O)(=O)c2ccc(NC(=O)OC)cc2)s1	inactive
O=C(O)c1ccccc1N[C@H](c1ccccc1)c1ccc2cccnc2c1O	inconclusive [inhibitor, partial curve]
CCn1c(SCC(=O)N2CCc3ccccc32)nnc1-c1c[nH]c2ccccc12	inconclusive [inhibitor, single point]
Cc1cc2c(c(N)n1)c(=O)oc1ccccc12	inconclusive [inhibitor, partial curve]
Cc1ccc2occ(C(=O)c3ccco3)c(=O)c2c1	inconclusive [inhibitor, single point]
CCOC(=O)c1nnn(CC(=O)Nc2cccc(OC)c2)c1C(=O)OCC	inactive
Cc1ccc(NC(=O)CSC2=C(C#N)C(c3ccco3)CC(=O)N2)cc1 (stereo not drawn)	active: 14.1 µM
COc1ccc2c(c1)c(=O)c(C(=O)c1ccccc1)cn2Cc1ccccc1	inconclusive [inhibitor, partial curve]
COc1ccc(CC(=O)Nc2c3c(nn2-c2cccc(Cl)c2)CS(=O)C3)cc1 (stereo not drawn)	inconclusive [inhibitor, partial curve]
COCCCNC(=S)NNC(=O)c1ccccc1Br	inconclusive [inhibitor, single point]
CCC(C)n1c(/C=C/c2ccccc2)nc2ccccc21 (stereo not drawn)	inconclusive [inhibitor, partial curve]
COc1ccc(C=C2C(=O)c3ccccc3C2=O)cc1O	active: 0.891 µM

Compound	Potency
COc1ccc(C(=O)N2CCSC2=S)cc1OC	inconclusive [inhibitor, single point]
O=C1[C@H]2[C@@H](C(=O)N1c1cc(Cl)cc(Cl)c1)[C@]1(C(=O)Nc3ccccc31)N1CCC[C@@H]21	inconclusive [inhibitor, single point]
O=C(c1ccccc1)N1CCN(C2CC3CCC2C3)CC1 (stereo not drawn)	inactive
C/C(=N\S(=O)(=O)c1ccc(C)cc1)NC(=S)Nc1ccc(C)cc1	inconclusive [inhibitor, single point]
COc1cccc(-c2nn(-c3ccccc3)cc2CNC(C)Cn2cncn2)c1 (stereo not drawn)	inactive
O=C(CNc1ccc(Cl)cc1)NNC(=S)NCc1ccccc1	inconclusive [inhibitor, single point]
CCCC(=O)c1ccc(N2CCCCCC2)c(F)c1	inconclusive [inhibitor, single point]
CN(C(=O)NC(=O)C1=C(N2CCOCC2)/C(=C/c2ccccc2)CC1)S(C)(=O)=O	inconclusive [inhibitor, partial curve]
CCc1cc(C(=O)OC)c(NC(=O)c2cc(Br)cs2)s1	inconclusive [inhibitor, single point]
Cc1ccc(C)c(OCCN2C(=O)NC3(CCc4ccccc4C3)C2=O)c1 (stereo not drawn)	inconclusive [inhibitor, single point]
COc1ccc(NCc2ccc([N+](=O)[O-])s2)c(OC)c1	active: 25.1 µM
CCCS(=O)(=O)N1CCN(S(=O)(=O)c2ccccc2[N+](=O)[O-])CC1	inactive
Cc1ccccc1-c1nnc(NC(=O)c2ccc(N3C(=O)CCC3=O)cc2)s1	inconclusive [inhibitor, partial curve]
COC(=O)c1cccc(S(=O)(=O)N2CCC(C)CC2)c1	inconclusive [inhibitor, single point]
COc1ccc(CSc2nnnn2Cc2ccccc2)cc1OC	inconclusive [inhibitor, partial curve]
O=C(Cc1ccccc1)Nc1cc([N+](=O)[O-])ccc1N1CCOCC1	inconclusive [inhibitor, single point]
COc1ccc(N2CCN(c3oc(Cc4ccccc4)nc3C#N)CC2)cc1	inconclusive [inhibitor, single point]
COc1ccc(NC(=S)NCc2ccccn2)cc1OC	inconclusive [inhibitor, single point]
Cc1ccc(N2C(S)=C(C#N)C(=O)NC23CCCCC3)cc1	inconclusive [inhibitor, single point]
CCC(C)CCCCC(=O)N[C@@H](CCN)C(=O)N[C@H](C(=O)N[C@@H](CCN)C(=O)N[C@H]1CCNC(=O)C([C@@H](C)O)NC(=O)[C@@H](CCN)NC(=O)[C@H](CCN)NC(=O)[C@H](CC(C)C)NC(=O)[C@@H](CC(C)C)NC(=O)[C@H](CCN)NC1=O)[C@@H](C)O (stereo partly drawn)	inactive
CC1CCN(CC(=O)Nc2cccc(C(=O)Nc3cccc(C(F)(F)F)c3)c2)CC1	inconclusive [inhibitor, partial curve, poor fit]
CCCc1ccc(C(=O)NNC(=O)c2ccc(Cl)cc2)cc1	inconclusive [inhibitor, partial curve]
